System: CC(=O)N[C@@H](CSSc1ccc2cc(O)ccc2c1)C(=O)NC1[C@@H](OC2[C@H](O)[C@H](O)C(O)[C@@H](O)[C@H]2O)O[C@H](CO)[C@@H](O)[C@@H]1O
Experiment: Activity at Mycobacterium tuberculosis Mtr by spectrophotometry

## Mycothione reductase (Mycobacterium tuberculosis) (sequence not shown)
  Km: 23 µM

Source: ChEMBL document CHEMBL1156177, “Conjugates of plumbagin and phenyl-2-amino-1-thioglucoside inhibit MshB, a deacetylase involved in the biosynthesis of mycothiol” (Bioorg Med Chem, 2010)
